Source: PubChem BioAssay (NCI)
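Exposure lasted 48 hours, with cells grown in 96-well plates and compounds tested at five concentrations. The concentration for 50% growth inhibition is given as GI50. TGI denotes the concentration required for complete inhibition of growth.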

System: NCI-H322M lung
Experiment: NCI anticancer screen, dose series, 48 h

Question: What does the source list for `COc1ccc(-c2nc(S(=O)(=O)c3ccc(C)cc3)c(S(C)(=O)=O)o2)cc1`?
Answer: GI50: 14.8 µM; TGI: 28 µM

Question: How did the GI50 turn out when `Nc1cc(-c2c[nH]c3ccc(Cl)cc23)nc2cc(-c3c[nH]c4ccccc34)nn12` was run?
Answer: 3.28 µM

Question: What about the TGI of the same compound?
Answer: 13.4 µM
